# About 1,800 (2.5%) of roughly 71,000 compounds were called active. The shares of active, inactive and inconclusive entries below differ from those in the screen. Calls follow the shape of the dose curve; as a rule, active = well fitted activation curve with a large enough effect in the signal ratio, with a control signal flat (not every such curve was filed as active); inconclusive = small, poorly fitted or top-dose-only effect, or effect the other way, or a change in a side signal; inactive = flat fitted curve, though single readings scatter; the % refers to the signal ratio. Where the call is inconclusive, the potency comes from a doubtful curve fit.
# Assay: Cell signaling CRE-BLA (Fsk stim); as to activity change, negative = inhibition: % of control where 0% means no effect
# Settings: CHO CRE-bla reporter (cAMP response element driving beta-lactamase), forskolin EC10, beta-lactamase ratio; activity change, negative = inhibition: at 38.2 µM (top of the series) unless noted
# Procedure, shortened: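 qHTS titration format; CRE-bla CHO reporter; stimulus EC10 NKH 477, a water-soluble forskolin. Read: CCF4 460/530 nm ratio. Potency expressed as AC50 for activators or inhibitors.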
# Potency is read from the fitted curve at half-maximal effect; tags tell the direction and shape of the fitted curve.
Structure (SMILES),"activity change, negative = inhibition",Potency
CC1CCCN(C(=O)CN2C(=O)c3ccccc3C2=O)C1 (centres undefined),inconclusive: -9.68% [at 7.6 µM],–
COc1ccc(-n2c(/C=C(\C)O)nc(=O)c3c(C)cc(C)nc32)cc1,inactive: 8.66%,–
COc1ccc(NC(=O)N2CC[C@@]3(CCCN(C(=O)c4c(C)noc4C)C3)C2)cc1,inactive: 8.17%,–
COc1ccc2c(CC(=O)NCc3ccc4c(c3)OCO4)coc2c1,inconclusive: -16.5%,–
Cn1c(=O)c2[nH]c(CCCCc3nc4c([nH]3)c(=O)n(C)c(=S)n4C)nc2n(C)c1=S,inactive: 2.04% [at 7.6 µM],–
CCSc1ccc2nnc(-c3ccc(F)cc3)n2n1,–,"inconclusive: 20 µM [rising, single point]"
Cn1c(=O)c(-c2cccs2)nc2cnc(Oc3ccccc3)nc21,–,"inconclusive: 10 µM [rising, partial curve]"
CCCCNC(=O)C(NS(=O)(=O)c1cccc2nsnc12)c1ccccc1 (centres undefined),inactive: -4.92%,–
CN(C)c1ncc2nc(CCc3ccccc3)c(=O)n(C3CC3)c2n1,–,active: 3.16 µM
O=C(O)CSc1cc(-c2ccccc2)nc2ccccc12,inactive: -1.59% [at 7.6 µM],–
CCC(=O)N1CCN(c2ccccc2NC(=O)COc2cccc(C)c2)CC1,inactive: -5.87%,–
CC(C)C(=O)Nc1ccc(C(=O)NCc2cccnc2)cc1,inactive: -5.8%,–
COC(=O)c1ccccc1NC(=O)CSc1nnnn1-c1ccc(C)cc1C,–,"inconclusive: 12.6 µM [rising, single point]"
c1ccc2c(c1)oc1c(NCCCN3CCOCC3)ncnc12,–,"inconclusive: 3.16 µM [rising, full curve]"
Cc1cccc(CNc2nc(-c3c(C)noc3C)nc3ccccc23)c1,–,"inconclusive: 3.98 µM [rising, partial curve]"
Cc1nnc(N2CCN(Cc3ccccc3)CC2)[nH]c1=O,inactive: -4.27%,–
CCn1c(SCC(=O)N2CCCc3ccccc32)nc2cccnc21,–,"inconclusive: 10 µM [rising, partial curve]"
Cc1cc(C)n2nc(SCC(=O)c3ccccc3)nc2n1,–,"inconclusive: 20 µM [rising, single point]"
CCn1c(CCNC(=O)c2ccc(Cl)cc2)nnc1SCC(=O)NC1CCCC1,inconclusive: 6.7%,–
COc1ccc(-c2csc(N3CCC(C(N)=O)(N4CCCCC4)CC3)n2)cc1,inconclusive: 21.6%,–
CCOc1ccc2[nH]c(C)c(CN3CCN(CC)CC3)c(=O)c2c1,–,"inconclusive: 3.16 µM [rising, partial curve, poor fit]"
O=C(C1CCC(C(=O)N2CCc3ccccc32)CC1)N1CCc2ccccc21 (centres undefined),inactive: -22.7%,–

Structure (SMILES),"activity change, negative = inhibition",Potency
COc1ccc(-n2c(=O)c3c4c(sc3n3c(C)nnc23)COC(C(C)C)C4)cc1 (centres undefined),inconclusive: 5.14%,–
CCOC(=O)N1CCN(S(=O)(=O)c2ccc(C(=O)Nc3ccc(F)cc3F)cc2)CC1,–,"inconclusive: 10 µM [rising, single point]"
Cn1c(SCc2nc3ccccc3[nH]2)nnc1-c1ccccn1,inconclusive: 41.1%,–
Cc1ccc(C)c(/C(O)=C2\C(=O)C(=O)N(CCCn3ccnc3)C2c2ccncc2)c1 (centres undefined),inactive: -5.16%,–
CCOc1ccc(NS(=O)(=O)c2ccc3[nH]cc(C(=O)NCCOC)c(=O)c3c2)cc1,inconclusive: 13.9%,–
CC(=O)C1=C(C)Nc2ncnn2C1c1ccc(Cl)cc1 (centres undefined),inactive: -25.4%,–
COc1ccc(CN2C(=O)[C@@H]3C(c4ccc(F)cc4)=NO[C@@H]3C2=O)cc1,inconclusive: 19.3%,–
CCOC(=O)c1[nH]cnc1C(=O)O,inactive: -1.81%,–
COc1ccccc1CC(=N)N1C[C@@H]2C(=O)CCC(c3ccccc3)(c3ccccc3)[C@@H]2C1,inactive: -18%,–
Cc1cccc(N2CCN(C(=O)Cn3ccc4ccccc4c3=O)CC2)c1C,inconclusive: -7.44%,–
O=C(CSc1nnc(-c2ccc(O)cc2)n1Cc1ccco1)c1cccs1,inactive: -14.7%,–
Cc1cc(S(=O)(=O)N2CCN(c3ccc(F)cc3)CC2)c(C)s1,inactive: 5.12%,–
COc1ccccc1C(=O)NCCn1cc(SCC(=O)Nc2nnc(C)s2)c2ccccc21,inconclusive: 18.8%,–
OC(COc1ccc2c(c1)OCO2)CN1CCc2ccccc2C1 (centres undefined),–,"inconclusive: 3.98 µM [falling, single point]"
COCCNC(=O)c1ccc2c(=O)n(CCOC)c(=O)[nH]c2c1,inactive: 1%,–
O=C(CN(C(=O)CCC(=O)Nc1nccs1)c1ccc2c(c1)OCCO2)NCc1ccco1,inactive: 4.47%,–
O=C(CSc1nnnn1C1CCCC1)N1CCCc2ccccc21,inactive: 1.97%,–
COc1cccc(-c2nn(-c3ccccc3)cc2CO)c1,inactive: 0.00611%,–
COc1ccc(NS(=O)(=O)c2ccc3c(c2)CCC(=O)N3)c(OC)c1,inconclusive: -6.31%,–
Cc1ccc(OCC(=O)Nc2ccc(-c3nc4ncccc4o3)cc2)c(C)c1,inactive: -4.44%,–
CC(C)Cn1c(N)c(C(=O)CSc2ccc3c(c2)OCCO3)c(=O)n(C)c1=O,–,"inconclusive: 2.51 µM [falling, full curve]"
CCOC(=O)c1c(NC(=O)c2cccs2)sc2c1CCC2,–,active: 3.16 µM
